# Test results as given in PubChem BioAssay AID445 (National Center for Advancing Translational Sciences (NCATS), 2006).
# About 40 (0.04%) of roughly 110,000 compounds were called active. This list was built around the results that the source calls inconclusive (neither active nor inactive); the mix of calls is not that of the screen. Calls come from the whole dose curve; as a rule, active = well fitted curve in the direction sought with a large enough effect in the signal ratio (not every such curve was filed as active); inconclusive = small, poorly fitted or top-dose-only effect, or a change in a side signal; inactive = flat fitted curve, though single readings scatter; the % refers to the signal ratio. Potencies beside an inconclusive call are fits to weak or partial responses and may not hold up.
# Experiment: IkB Signaling;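 for IkBa stabilization activation: 0% = basal untreated cells and 100% = reference inhibitor full response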
# Conditions: ABC-DLBCL IkBa-CBG/CBR dual luciferase ratio (green luciferase fused to IkBa over red control in OCI-Ly3 lymphoma cells), 4 h; IkBa stabilization activation: at 57.1 µM (top of the series), scaled: untreated 0%, proteasome inhibitor 100% unless noted
# How it was run: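 In this assay, an IκBα–CBG68 fusion accumulates when IKK-driven degradation is blocked; native CBR normalizes for cell number. OCI-Ly3 cells were treated 4 h with compound and doxycycline, then green and red light read after Chroma-Glo addition.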
# Potency is the fitted concentration of half-maximal effect.
Structure (SMILES),IkBa stabilization activation,Potency
CCOC(=O)Cc1c(C)nc2c(-c3ccc(Cl)cc3)c[nH]n2c1=O,inconclusive: 8.68% [signal inhibitor],
Cc1ccccc1NC(=O)Cn1c(=O)n(CCCCCC(=O)NCc2ccc3c(c2)OCO3)c(=O)c2sccc21,,"inconclusive: 39.8 µM [signal inhibitor, single point]"
CCOc1ccc(NC(=O)c2sc3nc(-c4ccc(OC)cc4)cn3c2C)cc1,inactive,
O=C(Nc1nc(-c2ccc(S(=O)(=O)N3CCCC3)cc2)cs1)C1COc2ccccc2O1 (stereo not drawn),inconclusive: -1.27% [signal inhibitor],
COc1ccc(-n2ccn(CC(=O)Nc3ccccc3C(F)(F)F)c(=O)c2=O)cc1OC,inactive,
CCc1ccc(-n2c(CCC(=O)O)ccc2-c2cccs2)cc1,,"inconclusive: 31.6 µM [signal inhibitor, single point]"
COc1ccc(-c2nsc(NC(=O)c3ccccc3Br)n2)cc1,inconclusive: 16.2% [signal inhibitor],
CS(=O)(=O)Nc1cccc(-c2nc(NCc3ccccc3)c3ccccc3n2)c1,"inactive: -6.29% [at 11.4 µM, scaled: untreated 0%, proteasome inhibitor 100%]",
CCOC(=O)Nc1ccc2c(c1)N(C(=O)CCN1CCOCC1)c1ccccc1S2=O (stereo not drawn),inconclusive: 4.27% [signal inhibitor],
COc1ccccc1N1CCN(S(=O)(=O)c2ccccc2)CC1,inactive,
CCCCCCC(c1c(C)n(C)n(-c2ccccc2)c1=O)c1c(C)n(C)n(-c2ccccc2)c1=O,inconclusive: 2.44% [signal inhibitor],
Cc1ccc(C)c(NC(=O)c2cnn(-c3ccc(F)cc3F)c2C2CCNCC2)c1,inconclusive: -1.07% [signal inhibitor],
O=C(c1ccc(S(=O)(=O)N2CCC(c3nc4ccccc4s3)CC2)cc1)N1CCOCC1,inactive,
O=C(Nc1ccccc1)N1CC=C(c2ccccc2)CC1,inconclusive: 11.5% [signal inhibitor],
CCC(c1nnnn1Cc1ccco1)N(CCc1ccccc1)Cc1cc2cccc(C)c2[nH]c1=O (stereo not drawn),inconclusive: 6.1% [signal inhibitor],
CCCC12CN3CC(CCC)(CN(C1)C3c1ccc(OCc3ccccc3)cc1)C2=O (stereo not drawn),inconclusive: -0.737% [signal inhibitor],
Fc1ccccc1C(NCCc1ccc(Cl)cc1)c1nnc(-c2ccccc2)o1 (stereo not drawn),inconclusive: 14.9% [signal inhibitor],
Cc1ccc(-c2nc(-c3cccnc3)no2)cc1,inconclusive: 8.24% [signal inhibitor],
Cc1ccc(Nc2ccc(N3CCN(C(=O)c4cccc([N+](=O)[O-])c4)CC3)nn2)cc1,inconclusive: -3.09% [signal inhibitor],
O=C(CSc1ncc2c(n1)-c1ccccc1N(Cc1ccc(Cl)cc1)S2(=O)=O)c1ccc(Cl)cc1,inactive,
Cc1cccn2cc(-c3ccccc3)nc12,inactive,
Cc1cccc(OCC(=O)Nc2ccc(S(=O)(=O)N3CCCC3)cc2)c1,inconclusive: 4.02% [signal inhibitor],

Structure (SMILES),IkBa stabilization activation,Potency
CN(C)c1ccc(C(CNC(=O)c2ccc(C(C)(C)C)cc2)N2CCCC2)cc1 (stereo not drawn),inconclusive: 2.63% [signal inhibitor],
COc1ccc(-n2nc(C(=O)NCCc3ccc(Cl)cc3)c3c4ccccc4n(C)c3c2=O)cc1,inconclusive: 4.83% [signal inhibitor],
COc1ccc(C2c3c(-c4ccccc4)n[nH]c3C(=O)N2c2ccc(C(=O)O)cc2)c(OC)c1 (stereo not drawn),inconclusive: 16% [signal inhibitor],
C=CCCCCCC,inactive,
COc1cc(NC(=O)Cn2c(-c3ccccc3)cc(C(C)=O)c2C)cc(OC)c1,inactive,
Cc1ccc(-c2cnc(C3CC3)o2)cc1S(=O)(=O)Nc1cccc(C#N)c1,inconclusive: 9.49% [signal inhibitor],
OCCN(CCO)c1nc(N2CCCCC2)c2nc(N(CCO)CCO)nc(N3CCCCC3)c2n1,inconclusive: 0.214% [signal inhibitor],
CN(Cc1ccccc1)C(=O)CSc1c2c(nc3ccc(Cl)cc13)CCCC2,inconclusive: -7.42% [signal inhibitor],
Cc1ccc(-c2c(CN3CCN(c4cccc(C)c4C)CC3)csc2C)cc1,inconclusive: -1.24% [signal inhibitor],
CCC(C)(C)n1nnnc1CN(Cc1ccc(Cl)cc1)Cc1ccco1,inconclusive: 2.06% [signal inhibitor],
Cc1ccccc1NC(=O)Cn1c(=O)n(CCC(=O)N2CCc3ccccc3C2)c(=O)c2ccccc21,inconclusive: 4.91% [signal inhibitor],
CCOC(=O)c1ccc(NC(=O)CCc2nc(-c3cccc(C)c3)no2)cc1,inactive,
COc1ccc(NS(=O)(=O)c2cc(-c3onc(C)c3C)ccc2C)c(OC)c1,inconclusive: 5.24% [signal inhibitor],
CCC1CN(C(=O)N2CCC(C(=O)NCCCc3ccccc3)CC2)c2cc(C)ccc2O1 (stereo not drawn),inconclusive: 1.44% [signal inhibitor],
CCn1c(SCC(=O)Nc2nc3ccc(OC)cc3s2)nc2c1c(=O)n(C)c(=O)n2C,inconclusive: 2.23% [signal inhibitor],
COc1ccc(NC(=O)CCS(=O)(=O)c2cc3c(cc2C)NC(=O)CO3)cc1Cl,inconclusive: 1.47% [signal inhibitor],
CCCc1cnc2c(c1SCC(=O)Nc1ccc([N+](=O)[O-])cc1)c(=O)n(C)c(=O)n2C,inconclusive: 4.46% [signal inhibitor],
Cc1ccc(C2CC(=O)n3nc(-c4ccc(F)cc4)nc3S2)cc1 (stereo not drawn),inconclusive: 7.75% [signal inhibitor],
CCCC(C(=O)NCc1ccco1)N(C(=O)CNS(=O)(=O)c1ccc(Cl)cc1)C1CCCC1 (stereo not drawn),inconclusive: 0.399% [signal inhibitor],
CCOC(=O)c1ccccc1NC(=O)N(Cc1ccc(CC)cc1)Cc1cn[nH]c1-c1ccc(OC)cc1,inconclusive: 1.89% [signal inhibitor],
CCCn1c(NCc2ccco2)nc2ccccc21,inactive,
